Consider 42 sequences from paper PMC7819943, “Rice protein-binding microarrays: a tool to detect cis-acting elements near promoter regions in rice”.

This is one part of the list.

For this assay, the target named is T1, OsWOX13 (Oryza sativa, UniProt Q5QMM3 1-267).
T1 sequence: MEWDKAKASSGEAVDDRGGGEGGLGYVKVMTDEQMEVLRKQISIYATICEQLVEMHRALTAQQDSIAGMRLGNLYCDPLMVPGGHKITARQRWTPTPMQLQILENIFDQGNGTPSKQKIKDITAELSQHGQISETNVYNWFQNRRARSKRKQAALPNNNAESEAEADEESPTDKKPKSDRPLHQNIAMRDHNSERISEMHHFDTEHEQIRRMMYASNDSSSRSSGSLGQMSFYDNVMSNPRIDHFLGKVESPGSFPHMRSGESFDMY
As to the kind of experiment: protein-binding microarray (RPBM); PBS, 2% BSA, 51.3 ng/ul salmon testes DNA, 50 uM zinc acetate, 200 nM TF, 25 C, 1 h; high values mean tight binding. The note with it: protein: recombinant; tags: N-terminal polyhistidine and DsRed monomer fusion (pET32a); label: CyDye5-dUTP incorporated in the synthesized complementary strand; 3' TTTTT single-stranded linker to array surface; dsDNA, one strand shown. The method, boiled down:
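Binding signal is defined as the fluorescence intensity of each feature in arbitrary units, read on an Axon 4000B scanner. Transcription factors with N-terminal polyhistidine and DsRed fusions came from E. coli BL21-CodonPlus and were purified on Ni–NTA. They were incubated at 200 nM for 1 h at 25 °C on a custom Agilent array that had been made double-stranded with Cy5-dUTP, with 50 µM zinc acetate present, and the array was washed.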
Regarding “TCTCGATTTGATTTGACCTGGATGCGCGCGAACGGAGACGCGGAGTCACCTAGTGCAG”, the binding signal was 20700 fluorescence intensity (a.u.).

“TAGCTATCATGGAAATCATATAATCTATCAATTCGAGCGACGGAGTCACCTAGTGCAG”: the binding signal is 4540 fluorescence intensity (a.u.).

On to “CATCCATGATTACCCATAAAGTGCTGCAGTAATCCACATGCGGAGTCACCTAGTGCAG”, for which the binding signal is 12400 fluorescence intensity (a.u.).

With “ATCCCTAATTCCCTATTAACAACAACTAACCAGCTAAAATCGGAGTCACCTAGTGCAG”, the binding signal was 4040 fluorescence intensity (a.u.). Then “AAGCTAACTGACGAGGAGGTGGATGAGATGATCCGTGAGGCGGAGTCACCTAGTGCAG”, with 7000 fluorescence intensity (a.u.); and “CTTAATTGGGACCCTCTCCTATCTGGATCATTCAACCAAACGGAGTCACCTAGTGCAG”, with 31100 fluorescence intensity (a.u.). Next, “ATATCTAATAGATTGTCCAGCAGAAGTCCATGCTCCACCGCGGAGTCACCTAGTGCAG”: 17600 fluorescence intensity (a.u.); “ATGTTAAATTTATTGAGATTCAGTGTTATAAATTTTGCTACGGAGTCACCTAGTGCAG”: 13400 fluorescence intensity (a.u.). Then “ATGACAAATTATCAGTTCAGTTGTGGCTATCACCATTGTCCGGAGTCACCTAGTGCAG”, with 30200 fluorescence intensity (a.u.); and “TTTTATGATGCCTATCAGCAAATTATACAAATTTTAAGTGCGGAGTCACCTAGTGCAG”, with 3180 fluorescence intensity (a.u.); and “AACAAATTTGAGTTTCGGCTTATTAAGTTAATTAAGCACACGGAGTCACCTAGTGCAG”, with 13200 fluorescence intensity (a.u.). Take “TTTTACTCATAATTAAATTTACAAGTAAAACTTTTACCCTCGGAGTCACCTAGTGCAG”: the binding signal was 10100 fluorescence intensity (a.u.). Next, “GCGGCTAATTGTATTGCCGCTCTCTTGTTGTATGGATTGACGGAGTCACCTAGTGCAG”: 4610 fluorescence intensity (a.u.); “GTAATTAAATTAGTTGCGTCCCCACCGATAAATTTTGCCACGGAGTCACCTAGTGCAG”: 13500 fluorescence intensity (a.u.).

Regarding “TGCTGATATTATCAAATTTGGTCGTTAACAATCTCACAACCGGAGTCACCTAGTGCAG”, the binding signal was 8520 fluorescence intensity (a.u.). Next, “AGTAATTAATTAATTCGGTGTGGGCAAAAGAAGAGATAGGCGGAGTCACCTAGTGCAG”: 36700 fluorescence intensity (a.u.); “TGTTAATAAATCTAAATATATATATGTGTGTCTAGTCCATCGGAGTCACCTAGTGCAG”: 3410 fluorescence intensity (a.u.); “TCAAATTGGTGTGACATCGTTGTTTTGTCACATCAGTTGTCGGAGTCACCTAGTGCAG”: 18200 fluorescence intensity (a.u.).

As to “TCAAAGCTTGATGATGATTATGCATGGAAATCGCCCGAGGCGGAGTCACCTAGTGCAG”, the binding signal is 5440 fluorescence intensity (a.u.).

Consider “AACAAATTGGAATCTGAACCTCTAGTGAACAATGCTTGAACGGAGTCACCTAGTGCAG”, for which the binding signal was 15000 fluorescence intensity (a.u.). Next, “GATAATTACCCACCCGAGGCTCCTGCGTCGTCCTCCTCTTCGGAGTCACCTAGTGCAG”: 8300 fluorescence intensity (a.u.); “CCTAAATGTAAATTTTCCAGCATAACTTGTTAGCTCTATACGGAGTCACCTAGTGCAG”: 14200 fluorescence intensity (a.u.).

As for “AAATGCGCCAATAATTTAACAGCCATTCAGCAATTACACCCGGAGTCACCTAGTGCAG”, the binding signal was 4130 fluorescence intensity (a.u.). As to “GGTGAGGATTGAAGATCCCTTGATTTAATCATGTTTGCATCGGAGTCACCTAGTGCAG”, the binding signal is 13300 fluorescence intensity (a.u.).

“TCTAATCACATGCATGATGCTAATTAATGCTAGCTAGCTTCGGAGTCACCTAGTGCAG”: the binding signal is 7980 fluorescence intensity (a.u.).

Turning to “TCACGATTAATTATATCATCATTTTGTATCCTTTGATTTCCGGAGTCACCTAGTGCAG”, the binding signal was 25200 fluorescence intensity (a.u.). Next, “AATAAATAAACAAACAGCACTCCCTGCACTGTTGCACCCTCGGAGTCACCTAGTGCAG”: 7190 fluorescence intensity (a.u.); “CAAATTTATTATTAAGATTATCCGAAAACAAATCCTAGCCCGGAGTCACCTAGTGCAG”: 6740 fluorescence intensity (a.u.). Next, “TTGTGTTTAGATTGCTAAACACTCACACATATATACAAGTCGGAGTCACCTAGTGCAG”: 3230 fluorescence intensity (a.u.); “AAAACTAATTTCATAAATGAGAGCTAATCCGCGAGACGAACGGAGTCACCTAGTGCAG”: 12000 fluorescence intensity (a.u.). Then “TAAATATTGACATGAAATCATATTAACGTTGGTCAAATATCGGAGTCACCTAGTGCAG”, with 10400 fluorescence intensity (a.u.).

With “ACTCAAATTTAAACTTATCATGTGACAGGGCAAAGGAGGACGGAGTCACCTAGTGCAG”, the binding signal is 12300 fluorescence intensity (a.u.). Then “CTACATACTATTTAAATTTAAATTATCATAAACCACATTACGGAGTCACCTAGTGCAG”, with 10500 fluorescence intensity (a.u.); and “ATGATAACTGATTGCAATAAGGTTAGGATGTTGTCACACCCGGAGTCACCTAGTGCAG”, with 52900 fluorescence intensity (a.u.); and “ATTGATTACCAGTTTGTTGTTTAGATTTGGTAATAGGGAACGGAGTCACCTAGTGCAG”, with 51200 fluorescence intensity (a.u.). Regarding “CCTTAATTAACTAACATTCAGTCAGTTAGTCACCGGATAGCGGAGTCACCTAGTGCAG”, the binding signal is 52600 fluorescence intensity (a.u.). Next, “TTTAAAATTTAATATCACTAATTATAGTTACAATCTCATCCGGAGTCACCTAGTGCAG”: 18800 fluorescence intensity (a.u.); “AGATAAATGGAGTAATGAGGCTGACATGTGGCCTACATGGCGGAGTCACCTAGTGCAG”: 5550 fluorescence intensity (a.u.). Then “TTTAGATTTGACATGAGTGCTAGTATTTATGGCTAATTATCGGAGTCACCTAGTGCAG”, with 17200 fluorescence intensity (a.u.); and “TATTGATTATTCTTCTATAAACAAACACCAGGTCTTCGGGCGGAGTCACCTAGTGCAG”, with 23900 fluorescence intensity (a.u.). Regarding “TTTCAATCCGTTAAAATTTAATGTTTCAGACACGATAGCACGGAGTCACCTAGTGCAG”, the binding signal was 7710 fluorescence intensity (a.u.). Turning to “TCAATCAATCTGACCAATTCAGTCAAGTCCCAATTCCCAACGGAGTCACCTAGTGCAG”, the binding signal is 9830 fluorescence intensity (a.u.).
